In the supplement of paper PMC10369915:
The list shows a part of the results. No stated cut-off is given here; in the data, active = 3.2 or more and inactive = the rest. The signal is at background level for most entries.

How the values were obtained:
Experiment in all cases: enrichment score (SH2-bound / input frequency) (ratio); bacterial display of known human phosphotyrosine sites (pTyr-Var adds point mutants) read by sequencing; higher = stronger binding; tyrosines were phosphorylated by kinases first
Settings in all cases: peptide library: pTyr-Var
SHP2 C-SH2 domain E139D = biological target: SHP2 C-SH2 domain E139D
[1] = biological target: SHP2 C-SH2 domain wild-type
SHP2 N-SH2 domain L43F = biological target: SHP2 N-SH2 domain L43F
SHP2 N-SH2 domain T42A = biological target: SHP2 N-SH2 domain T42A
SHP2 N-SH2 domain T52S = biological target: SHP2 N-SH2 domain T52S
[2] = biological target: SHP2 N-SH2 domain wild-type

Measured: enrichment score
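Further: displayed peptides selected on beads carrying the immobilized SH2 domain, with library peptides lacking any tyrosine serving as negative controls.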

LVQAEYWRDPI [PPT1_Y185_H187R]
inactive: SHP2 C-SH2 domain E139D 1.04 | [1] 1.04 | SHP2 N-SH2 domain L43F 0.897 | SHP2 N-SH2 domain T42A 0.878 | SHP2 N-SH2 domain T52S 0.991 | [2] 1.01

CGTPDYIAREI [PRKCG_Y521_P524R]
inactive: SHP2 C-SH2 domain E139D 0.741 | [1] 1.03 | SHP2 N-SH2 domain L43F 0.788 | SHP2 N-SH2 domain T42A 0.731 | SHP2 N-SH2 domain T52S 0.721 | [2] 1.17

FSAPNCCYRCG [PPP2CA_Y265_Y265C]
inactive: SHP2 C-SH2 domain E139D 0.772 | [1] 0.96 | SHP2 N-SH2 domain L43F 0.819 | SHP2 N-SH2 domain T42A 0.797 | SHP2 N-SH2 domain T52S 0.706 | [2] 1.07

FGGTVCHSPVS [PRC1_Y511_Y511C]
inactive: SHP2 C-SH2 domain E139D 0.84 | [1] 0.871 | SHP2 N-SH2 domain L43F 0.795 | SHP2 N-SH2 domain T42A 0.725 | SHP2 N-SH2 domain T52S 0.861 | [2] 1.05

CGTPDYIAPEI [PRKCG_Y521]
inactive: SHP2 C-SH2 domain E139D 0.694 | [1] 0.615 | SHP2 N-SH2 domain L43F 0.639 | SHP2 N-SH2 domain T42A 0.511 | SHP2 N-SH2 domain T52S 0.654 | [2] 0.945

LMQAEYWHDPI [PPT1_Y185_V181M]
inactive: SHP2 C-SH2 domain E139D 1.19 | [1] 1.14 | SHP2 N-SH2 domain L43F 1.1 | SHP2 N-SH2 domain T42A 0.862 | SHP2 N-SH2 domain T52S 0.829 | [2] 1.01

RGRKVYLEDGF [PRIM2_Y201]
inactive: SHP2 C-SH2 domain E139D 0.245 | [1] 0.269 | SHP2 N-SH2 domain L43F 0.217 | SHP2 N-SH2 domain T42A 0.222 | SHP2 N-SH2 domain T52S 0.233 | [2] 0.185

RSIGEYDVLRA [PRKDC_Y2936_G2941A]
inactive: SHP2 C-SH2 domain E139D 0.655 | [1] 0.858 | SHP2 N-SH2 domain L43F 0.671 | SHP2 N-SH2 domain T42A 0.641 | SHP2 N-SH2 domain T52S 0.671 | [2] 1.2

NQILPYIKELV [PPP2R1B_Y341]
inactive: SHP2 C-SH2 domain E139D 1.21 | [1] 1.31 | SHP2 N-SH2 domain L43F 0.903 | SHP2 N-SH2 domain T42A 0.862 | SHP2 N-SH2 domain T52S 1.06 | [2] 1.53

HITQVYGFYDE [PPP2CA_Y127_Q122H]
inactive: SHP2 C-SH2 domain E139D 1.2 | [1] 1.45 | SHP2 N-SH2 domain L43F 1.13 | SHP2 N-SH2 domain T42A 1.26 | SHP2 N-SH2 domain T52S 1.2 | [2] 1.93

GSIQQYTFKQE [PRG4_Y1271_I1272T_YF]
inactive: SHP2 C-SH2 domain E139D 0.931 | [1] 0.999 | SHP2 N-SH2 domain L43F 0.866 | SHP2 N-SH2 domain T42A 0.794 | SHP2 N-SH2 domain T52S 0.952 | [2] 0.752

LGPSDYFGETA [PRKAR1A_Y323_I327T]
inactive: SHP2 C-SH2 domain E139D 0.527 | [1] 0.539 | SHP2 N-SH2 domain L43F 0.745 | SHP2 N-SH2 domain T42A 0.447 | SHP2 N-SH2 domain T52S 0.581 | [2] 0.652

NQILPYIEELV [PPP2R1B_Y341_K343E]
inactive: SHP2 C-SH2 domain E139D 0.845 | [1] 0.954 | SHP2 N-SH2 domain L43F 0.812 | SHP2 N-SH2 domain T42A 0.764 | SHP2 N-SH2 domain T52S 0.77 | [2] 0.828

LLQAEYWHDPI [PPT1_Y185_V181L]
inactive: SHP2 C-SH2 domain E139D 1.22 | [1] 1.39 | SHP2 N-SH2 domain L43F 1.32 | SHP2 N-SH2 domain T42A 0.929 | SHP2 N-SH2 domain T52S 1.25 | [2] 1.45

QITQVYGFFDE [PPP2CA_Y127_YF]
inactive: SHP2 C-SH2 domain E139D 1.53 | [1] 1.27 | SHP2 N-SH2 domain L43F 1.44 | SHP2 N-SH2 domain T42A 1.2 | SHP2 N-SH2 domain T52S 1.44 | [2] 1.97

FPLELYERVRI [PRKCG_Y312_M317I_YF]
inactive: SHP2 C-SH2 domain E139D 1 | [1] 0.98 | SHP2 N-SH2 domain L43F 0.941 | SHP2 N-SH2 domain T42A 1.13 | SHP2 N-SH2 domain T52S 0.956 | [2] 0.834

CGSLLYGLVHQ [PRKCG_Y122]
inactive: SHP2 C-SH2 domain E139D 1.15 | [1] 1.09 | SHP2 N-SH2 domain L43F 1.1 | SHP2 N-SH2 domain T42A 1.11 | SHP2 N-SH2 domain T52S 1.07 | [2] 0.976

FSAPNCCFRCG [PPP2CA_Y265_Y265C_YF]
inactive: SHP2 C-SH2 domain E139D 0.913 | [1] 0.791 | SHP2 N-SH2 domain L43F 0.583 | SHP2 N-SH2 domain T42A 0.762 | SHP2 N-SH2 domain T52S 0.659 | [2] 0.69

YPLELYERVRM [PRKCG_Y312]
inactive: SHP2 C-SH2 domain E139D 0.921 | [1] 0.92 | SHP2 N-SH2 domain L43F 1.09 | SHP2 N-SH2 domain T42A 0.845 | SHP2 N-SH2 domain T52S 1.08 | [2] 1.14

GLVFLYMEKNQ [PRELP_Y156]
inactive: SHP2 C-SH2 domain E139D 1.94 | [1] 2.22 | SHP2 N-SH2 domain L43F 2.19 | SHP2 N-SH2 domain T42A 1.89 | SHP2 N-SH2 domain T52S 2.01 | [2] 2.23

FSAPNYCYRCG [PPP2CA_Y265]
inactive: SHP2 C-SH2 domain E139D 1.39 | [1] 1.41 | SHP2 N-SH2 domain L43F 1.37 | SHP2 N-SH2 domain T42A 1.24 | SHP2 N-SH2 domain T52S 1.32 | [2] 1.25

LRGEDCGFSVD [PRKCI_Y430_Y430C]
inactive: SHP2 C-SH2 domain E139D 0.938 | [1] 0.991 | SHP2 N-SH2 domain L43F 0.942 | SHP2 N-SH2 domain T42A 0.77 | SHP2 N-SH2 domain T52S 0.927 | [2] 0.996

ETEMLYGSARR [PRC1_Y464_P468R]
inactive: SHP2 C-SH2 domain E139D 0.863 | [1] 0.705 | SHP2 N-SH2 domain L43F 0.688 | SHP2 N-SH2 domain T42A 0.794 | SHP2 N-SH2 domain T52S 0.585 | [2] 0.679

QITQVCGFFDE [PPP2CA_Y127_Y127C_YF]
inactive: SHP2 C-SH2 domain E139D 1.52 | [1] 1.33 | SHP2 N-SH2 domain L43F 1.06 | SHP2 N-SH2 domain T42A 1.04 | SHP2 N-SH2 domain T52S 1.41 | [2] 1.49

REIIAYQPFGK [PRKCG_Y529_P524R_YF]
inactive: SHP2 C-SH2 domain E139D 1.16 | [1] 0.891 | SHP2 N-SH2 domain L43F 0.732 | SHP2 N-SH2 domain T42A 0.534 | SHP2 N-SH2 domain T52S 0.847 | [2] 1.04

LNAGAYSKVVQ [PPT1_Y172]
inactive: SHP2 C-SH2 domain E139D 1.09 | [1] 1.79 | SHP2 N-SH2 domain L43F 0.922 | SHP2 N-SH2 domain T42A 0.887 | SHP2 N-SH2 domain T52S 0.626 | [2] 0.9

LGPSDYFGEIV [PRKAR1A_Y323_A328V]
inactive: SHP2 C-SH2 domain E139D 0.86 | [1] 0.833 | SHP2 N-SH2 domain L43F 0.868 | SHP2 N-SH2 domain T42A 0.675 | SHP2 N-SH2 domain T52S 0.714 | [2] 0.855

PEIIAYQPYGK [PRKCG_Y529]
inactive: SHP2 C-SH2 domain E139D 0.68 | [1] 0.698 | SHP2 N-SH2 domain L43F 0.802 | SHP2 N-SH2 domain T42A 0.831 | SHP2 N-SH2 domain T52S 0.639 | [2] 0.492

GSIQQYIFKQE [PRG4_Y1271_YF]
inactive: SHP2 C-SH2 domain E139D 1.14 | [1] 0.65 | SHP2 N-SH2 domain L43F 1.11 | SHP2 N-SH2 domain T42A 0.676 | SHP2 N-SH2 domain T52S 0.635 | [2] 0.783

RNIQQYNSFVS [PRKAR1A_Y373]
inactive: SHP2 C-SH2 domain E139D 0.712 | [1] 0.723 | SHP2 N-SH2 domain L43F 0.876 | SHP2 N-SH2 domain T42A 0.672 | SHP2 N-SH2 domain T52S 0.77 | [2] 0.741

QITQVCGFYDE [PPP2CA_Y127_Y127C]
inactive: SHP2 C-SH2 domain E139D 0.768 | [1] 0.856 | SHP2 N-SH2 domain L43F 0.581 | SHP2 N-SH2 domain T42A 0.743 | SHP2 N-SH2 domain T52S 0.429 | [2] 1.19

FEPWVYSFSYE [PRKDC_Y647]
inactive: SHP2 C-SH2 domain E139D 1.03 | [1] 1.18 | SHP2 N-SH2 domain L43F 1.09 | SHP2 N-SH2 domain T42A 1.16 | SHP2 N-SH2 domain T52S 1.04 | [2] 1.4

KGRGEYFAIKA [PRKCD_Y374]
inactive: SHP2 C-SH2 domain E139D 1.39 | [1] 1.18 | SHP2 N-SH2 domain L43F 1.57 | SHP2 N-SH2 domain T42A 1.01 | SHP2 N-SH2 domain T52S 1.26 | [2] 1.38

CGTPDYIDPEI [PRKCG_Y521_A523D]
inactive: SHP2 C-SH2 domain E139D 0.79 | [1] 0.947 | SHP2 N-SH2 domain L43F 0.849 | SHP2 N-SH2 domain T42A 0.72 | SHP2 N-SH2 domain T52S 0.807 | [2] 1.01

RSIGEYDVLRG [PRKDC_Y2936]
inactive: SHP2 C-SH2 domain E139D 0.807 | [1] 0.763 | SHP2 N-SH2 domain L43F 0.913 | SHP2 N-SH2 domain T42A 0.652 | SHP2 N-SH2 domain T52S 0.638 | [2] 0.774

GLVFLYVEKNQ [PRELP_Y156_M157V]
inactive: SHP2 C-SH2 domain E139D 2.68 | [1] 2.16 | SHP2 N-SH2 domain L43F 2.23 | SHP2 N-SH2 domain T42A 2.03 | SHP2 N-SH2 domain T52S 2.42 | [2] 2.52

GSIQQYTYKQE [PRG4_Y1271_I1272T]
inactive: SHP2 C-SH2 domain E139D 0.74 | [1] 1.1 | SHP2 N-SH2 domain L43F 1.02 | SHP2 N-SH2 domain T42A 0.824 | SHP2 N-SH2 domain T52S 0.947 | [2] 1.16
